Laboratory results taken from patent US20230227565A1, “Method for Treating CD127-Positive Cancers by Administering an Anti-CD127 Agent” (OSE IMMUNOTHERAPEUTICS, priority 2021, published 2023).

Legend:
[1] = tested on: CD127-positive tumor cells; test: In vitro phagocytosis (ADCP) assay, ALL cell lines expressing CD127; format: cell-based; conditions: human macrophages
[2] = tested on: CD127 signaling (p-STAT5) in HPB-ALL cells; test: P-STAT5 probing by flow cytometry, HPB-ALL; format: cell-based, human; conditions: IL-7 5 ng/mL; IL-7 responsive T-ALL cell line
Experimental: (§1) P-STAT5 probing by flow cytometry: Cells were starved overnight in TexMacs medium (Miltenyi, Bergisch Gladbach, Germany; reference 130-097-196). After 30 min incubation in TexMacs medium (37° C.) supplemented with anti-CD127 agents, cells were stimulated with 5 ng/mL rhIL-7 (AbDSerotec, Raleigh, North Carolina, USA; reference PHP046) at 37° C. The reaction was then stopped by incubation on ice for 5 min and cells were fixed and permeabilized using the Phospho-Flow protocol from BD Biosciences, Franklin Lakes, N.J., USA (Cytofix/Cytoperm buffer and Perm/ Wash buffer (BD biosciences reference 554714) Perm buffer III (BD biosciences reference 558050)). Phospho-STAT5 detection was measured using the AlexaFluor647 anti-human pStat5 antibody (BD biosciences reference 612599) following the manufacturer's instructions.

HPB-ALL cells = test: In vitro phagocytosis assay, HPB-ALL; format: cell-based, human
hCD64/FcγRI = target: T1, hCD64/FcγRI (Homo sapiens, UniProt P12314); test: ELISA binding to FcγR, CD64; conditions: FIG. 17C
T1 construct: purchased R&D Systems 1257-FC-050
Experimental: (§2) ELISA binding to FcγR. For binding ELISA assay, recombinant hCD64/FcγRI (R&Dsystems, Minneapolis, Minn., USA; reference 1257-FC-050) or hCD32a/FcγRIIa (R&Dsystems, Minneapolis, Minn., USA; reference 1330-CD-050) or hCD16a/FcγRIIIa (R&Dsystems, Minneapolis, Minn., USA; reference 4325-FC-050) was immobilized on plastic at 2 μg/ml in borate buffer (pH9) and purified antibody were added to measure binding.

macrophages [3] = tested on: macrophages
HPB-ALL CDX = test: HPB-ALL cell line derived xenograft (CDX) model; format: in vivo, mice; conditions: FIG. 18D
[4] = tested on: B-ALL patient leukemic blasts; test: In vitro phagocytosis assay, B-ALL patient leukemic blasts; format: cell-based, human; conditions: FIG. 21C
DND41 cells = test: In vitro phagocytosis assay, DND41; format: cell-based; conditions: FIG. 22A; human macrophages
[5] = tested on: T-ALL patient derived xenograft; test: IL-7 dependent T-ALL patient derived xenograft (FIG. 19G); format: in vivo, mice
[6] = tested on: human MSTO-211H biphasic malignant mesothelioma cells; test: In vitro phagocytosis assay, mesothelioma cells; format: cell-based; conditions: FIG. 23B; increasing doses
DND41 CDX = test: DND41 cell line derived xenograft (CDX) model; format: in vivo, mice; conditions: FIG. 22D
[7] = tested on: CD127 signaling (p-STAT5) in NALM6 cells; test: P-STAT5 probing by flow cytometry, NALM6; format: cell-based, human; conditions: FIG. 20B; IL-7 unresponsive B-ALL cell line
Experimental: as §1

[8] = tested on: B-ALL cell lines (697 t(1;19), NALM6 (DUX4) and REH t(12;21)); test: In vitro phagocytosis assay, B-ALL cell lines (FIG. 8); format: cell-based, human; conditions: increasing doses
[9] = tested on: T-ALL patient leukemic blasts; test: In vitro phagocytosis assay, T-ALL patient leukemic blasts; format: cell-based, human; conditions: FIG. 19D
[10] = tested on: T-ALL patient-derived xenograft; test: Overt leukemia PDX cohort, 15 T-ALL specimens (FIG. 2D); format: in vivo, mice; conditions: control 44 days, p=0.04
Experimental: (§3) In overt leukemia experiments, mice were injected with 1 million BCP-ALL patient derived xenograft cells (n=10) of E2A-PBX1 positive patients (n=2 patients).

hCD32a/FcγRIIa = target: T2, hCD32a/FcγRIIa (Homo sapiens, UniProt P12318); test: ELISA binding to FcγR, CD32a; conditions: FIG. 17B
T2 construct: purchased R&D Systems 1330-CD-050
T2 sequence (P12318 34-317): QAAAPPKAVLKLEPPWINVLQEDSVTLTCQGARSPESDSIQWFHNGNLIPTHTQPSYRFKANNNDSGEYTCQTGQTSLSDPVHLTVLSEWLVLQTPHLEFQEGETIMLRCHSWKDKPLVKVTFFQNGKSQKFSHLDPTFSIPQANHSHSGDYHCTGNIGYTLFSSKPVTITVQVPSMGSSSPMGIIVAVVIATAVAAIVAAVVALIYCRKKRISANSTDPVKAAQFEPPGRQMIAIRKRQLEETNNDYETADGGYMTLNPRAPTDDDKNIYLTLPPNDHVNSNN
Experimental: as §2

NALM6 CDX = test: NALM6 cell line derived xenograft (CDX) model; format: in vivo, mice; conditions: FIG. 20D
[11] = tested on: CD127 signaling (p-STAT5) in T-ALL patient leukemic blasts; test: P-STAT5 probing by flow cytometry, T-ALL patient leukemic blasts; format: cell-based, human; conditions: FIG. 19C; IL-7 stimulation
Experimental: as §1

[12] = tested on: B-ALL and T-ALL patient derived xenografts; test: Overt leukemia ALL PDX, combination with standard of care
[13] = tested on: B- and T-ALL patient derived xenografts; test: Peripheral blast reduction in 23 ALL PDX mice (FIG. 5); format: in vivo; conditions: 23 different ALL PDX
Experimental: (§4) Assessment of in vivo efficacy of treatment through peripheral blast reduction measurement. […] Blast reduction was calculated by subtracting the percentage of leukemic blasts in treated mice from the percentage of leukemic blasts detected in corresponding control animals.

[14] = tested on: CD127 signaling (p-STAT5) in DND41 cells; test: P-STAT5 probing by flow cytometry, DND41; format: cell-based, human; conditions: FIG. 22B; IL-7R mutated, constitutively activated T-ALL cell line
Experimental: as §1

normal T cells = test: Phagocytosis of normal T cells by macrophages; format: cell-based, human; conditions: FIG. 10
[15] = Phase I study in healthy volunteers; conditions: single dose 0.002-10 mg/kg IV or 1 mg/kg SC, or two doses 6 or 10 mg/kg 2 weeks apart
hCD16a/FcγRIIIa = target: T3, hCD16a/FcγRIIIa (Homo sapiens, UniProt P08637); test: ELISA binding to FcγR, CD16a; conditions: FIG. 17A
T3 construct: purchased R&D Systems 4325-FC-050
Experimental: as §2

[16] = tested on: B-ALL patient-derived xenograft; test: Overt leukemia PDX cohort, 12 B-ALL specimens (FIG. 2C); format: in vivo, mice; conditions: control 61 days, p=0.007
Experimental: as §3

REH cell line = test: In vitro phagocytosis assay, REH; format: cell-based, human; conditions: FIG. 10, compared with anti-CD47 5F9
[17] = tested on: T-cell ALL cell lines (HPB-ALL and DND41 IL7R mut.); test: In vitro phagocytosis assay, T-ALL cell lines (FIG. 7); format: cell-based, human; conditions: increasing doses
macrophages [18] = tested on: macrophages; remark: listed apart in the source
[19] = tested on: B-ALL patient derived xenograft; test: B-ALL patient derived xenograft with weak p-STAT5 signaling (FIG. 21D); format: in vivo, mice
NALM6 cells = test: In vitro phagocytosis assay, NALM6; format: cell-based, human
Excerpt: Visualization of engulfed leukemic cells (CPD+) by M1 human macrophages (CTG+) was investigated in parallel to flow cytometry analysis using a Nikon ECLIPSE Ti2 microscope using the NIS-Elements software (Nikon, Minato City, Tokyo, Japan).

[20] = tested on: human CD127+ cells (T cells); test: ADCC assay with Natural Killer cells; format: cell-based; conditions: FIGS. 11B and 11C
Experimental: ADCC assay. 1 million human freshly isolated T cells were labelled with 15 uL ^51Cr (5 mCi/ml, PerkinElmer, Waltham, Mass., USA, cat# NEZ030001MC) for 1 h at 37° C., 5% CO2. T cells were then washed until radioactivity (measured by radioactive gamma counter) was absent in the supernatant. 25 μl/well of T cells-^51Cr target cells at 0.4 million cells/mL (10,000 cells/w) were seeded on P96-microtiter plate (flat bottom). 25 μl/well of anti-hCD127 antibodies were added in triplicate at 200 ng/mL (100 ng/mL final concentration) and left to incubate for 15 min at RT. […] As positive control of cytotoxicity, 75 μL of SDS 10% was added in 3 wells for 10 min before reading. Eventually, 25 μL/w supernatant were placed into radioactive reader plate and 100 μL/w Microscint Scintillant (PerkinElmer cat# 60136211) were added. Release of ^51Cr in supernatant was measured by radioactive gamma counter in counts per minutes (cpm). […]
For ADCC assay illustrated on FIG. 10C, effector cells, NK cells, were purified by negative selection (NK isolation kit, Miltenyi) from human PBMC and incubated with 150 UI/mL of IL-2 overnight at 37° C., 5% CO2. […] After incubation, substrate One Glo Luciferase product (2×) was added to each well to measure the number of live CD127-positive-Luc+ cells by chemiluminescence in a TECAN plate reader. […]

[21] = tested on: T-ALL patient-derived xenograft; test: Leukemia development in four T-ALL patient-derived xenografted mice (FIG. 1C); format: in vivo; conditions: four T-ALL PDX; control mice 20 to 90% engraftment
Experimental: as §4

T1 sequence (P12314 16-374): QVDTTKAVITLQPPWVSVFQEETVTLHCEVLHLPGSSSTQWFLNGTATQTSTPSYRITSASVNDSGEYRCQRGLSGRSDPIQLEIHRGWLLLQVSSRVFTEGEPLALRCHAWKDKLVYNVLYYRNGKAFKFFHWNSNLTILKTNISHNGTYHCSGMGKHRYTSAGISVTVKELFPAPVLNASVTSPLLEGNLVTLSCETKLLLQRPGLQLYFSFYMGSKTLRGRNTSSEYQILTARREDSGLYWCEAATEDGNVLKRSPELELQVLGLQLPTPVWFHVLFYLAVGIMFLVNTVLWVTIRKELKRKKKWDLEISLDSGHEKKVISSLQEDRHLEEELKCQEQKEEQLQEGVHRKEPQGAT
T3 sequence (P08637 17-254): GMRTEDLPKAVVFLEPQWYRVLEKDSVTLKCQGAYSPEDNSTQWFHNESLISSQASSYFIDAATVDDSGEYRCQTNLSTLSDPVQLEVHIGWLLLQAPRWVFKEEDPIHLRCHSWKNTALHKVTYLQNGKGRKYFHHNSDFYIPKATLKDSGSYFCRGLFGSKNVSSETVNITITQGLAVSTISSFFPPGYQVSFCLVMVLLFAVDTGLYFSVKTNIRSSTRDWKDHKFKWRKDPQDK

B1: N13B2-hVL6: antagonist IgG4 anti-CD127 monoclonal antibody, ADCP+/ADCC-; heavy chain SEQ ID No. 27, light chain SEQ ID No. 28 (antibody)
heavy: QVQLVESGGGLVKPGGSLRLSCAVSGFTLSDYYMAWIRQAPGKGLEWVSTISASGLRTYYPDSVKGRFTISRDNAKNSLYLQMNSLRAEDTAVYYCARPLSAHYGFNYFDYWGQGTLVTVSSASTKGPSVFPLAPCSRSTSESTAALGCLVKDYFPEPVTVSWNSGALTSGVHTFPAVLQSSGLYSLSSVVTVPSSSLGTKTYTCNVDHKPSNTKVDKRV[human IgG4 Fc with S228P L445P (EU numbers) not listed]
light: DIQMTQSPSSLSASVGDRVTITCRTSEDIYQGLAWYQQKPGKAPKLLLYSANTLHIGVPSRFSGSGSGTDYTLTISSLQPEDFATYYCQQYYDYPLAFGGGTKVEIKRTVAAPSVFIFPPSDEQLKSGTASVVCLLNNFYPREAKVQWKVDNALQSGNSQESVTEQDSKDSTYSLSSTLTLSKADYEKHKVYACEVTHQGLSSPVTKSFNRGEC
- phagocytosis (ADCP) of CD127-positive tumor cells by macrophages [1]: enhanced; also recorded: the strongest ADCP capability; also recorded: superior ADCP capacities
- inhibition of CD127 signaling (p-STAT5) [2]: efficiently inhibit CD127 signaling
- phagocytosis index, combination with dexamethasone (HPB-ALL cells; FIG. 14A, Dexamethasone 10 μM for 48 h): synergetic effect
- induction of ADCP (HPB-ALL cells; human macrophages): able to induce ADCP
- binding to CD64 (hCD64/FcγRI): does not bind efficiently
- autophagocytosis of macrophages (macrophages [3]): no autophagocytosis
- antileukemic activity (overall survival) (HPB-ALL CDX): antileukemic activity
- induction of ADCP [4]: induced efficiently
- induction of ADCP (DND41 cells): induces ADCP
- anti-leukemic activity (overall survival) [5]: exerts anti-leukemic activity
- phagocytosis of CD127+ human mesothelioma cells [6]: enhances the phagocytosis
- antileukemic activity (overall survival) (DND41 CDX): antileukemic activity
- inhibition of CD127 signaling (p-STAT5) [7]: cannot inhibit CD127 signaling
- phagocytosis of B-ALL tumor cells by macrophages [8]: the most efficient
- induction of ADCP [9]: induce ADCP
- median overall survival [10]: 71 days
- binding to CD32a (hCD32a/FcγRIIa): does not bind efficiently
- antileukemic activity (overall survival) (NALM6 CDX): antileukemic activity
- inhibition of CD127 signaling (p-STAT5) [11]: efficiently inhibit CD127 signaling
- survival, combination with standard of care ([12]; FIG. 14C, cohort of 8 ALL specimens, SOC Dexamethasone+Oncaspar+Vincristine): synergistic efficacy
- survival at 260 days, single treatment ([12]; FIG. 15B, 9 PDX): did not survive
- mice alive 260 days after injection, combination with standard of care ([12]; FIG. 15B, 9 PDX, (5/9)): more than 50%
- leukemic blasts in the bone marrow or the spleen, combination with standard of care ([12]; FIG. 15C, mice that survived more than 260 days): not detected
- leukemic blast reduction compared to control treatment [13]: leukemic blast reduction
- inhibition of CD127 signaling (p-STAT5) [14]: cannot inhibit CD127 signaling
- phagocytosis of normal T cells by macrophages (normal T cells): does not have any significant impact
- safety and tolerability [15]: safe and well-tolerated
- binding to CD16a (hCD16a/FcγRIIIa): does not bind efficiently
- median overall survival [16]: 91 days
- phagocytosis of tumor cells by macrophages (REH cell line): higher increase in phagocytosis of the tumor cells than that of an anti-CD47 agent
- phagocytosis of T-ALL tumor cells by macrophages [17]: very efficient
- overall number of live macrophages (macrophages [18]): not impacted
- anti-leukemic activity (overall survival) [19]: exerts anti-leukemic activity
- phagocytosis of leukemia cells by macrophages (microscopy) (NALM6 cells; FIG. 6, human M1 macrophages): leads to the phagocytosis of leukemia cells by macrophages
- phagocytosis index, combination with anti-CD47 antibody Magrolimab (5F9) (NALM6 cells; FIG. 14B): synergetic effect
- induction of ADCP (NALM6 cells; FIG. 20A, human macrophages): induces ADCP
- ADCC by Natural Killer cells [20]: lacks ADCC capacities
- leukemic blasts in the peripheral blood [21]: absent

Entries after “also recorded” stand apart in the source; their conditions may differ.
